Measurements reported in PubChem BioAssay AID1240 (Sanford-Burnham Center for Chemical Genomics, 2008).
Among all 50,000 compounds or so, about 800 (1.6%) showed an effect of 50% or more. The list shows a part of the results.

Target: Bcl-2-like protein 10 (Homo sapiens) (UniProt Q9HD36)
Experiment: Phenotype converters, Bcl-B/TR3 peptide binding displacement, primary biochemical FP (AID 1240);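 note: 0% = Bcl-B with tracer peptide and DMSO and 100% = tracer peptide lacking Bcl-B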
Details: GST-Bcl-B / FITC-TR3 peptide fluorescence polarization; stronger effect = higher value; compound at 3.75 mg/L

UniProt Q9HD36, sequence (Q9HD36 whole entry, looked up): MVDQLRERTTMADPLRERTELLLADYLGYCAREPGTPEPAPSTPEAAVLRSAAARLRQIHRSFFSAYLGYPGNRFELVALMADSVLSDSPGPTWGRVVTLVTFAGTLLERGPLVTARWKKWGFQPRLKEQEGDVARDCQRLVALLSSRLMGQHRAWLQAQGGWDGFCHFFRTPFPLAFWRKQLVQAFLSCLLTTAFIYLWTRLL

Row | Compound | displacement
1 | Cc1ccc(/C=C2\SC(=S)N(Nc3ccccc3)C2=O)o1 | -9.4%
2 | O=C(N/N=C/c1ccc(Cl)c([N+](=O)[O-])c1)/C(=C\c1ccc2c(c1)OCO2)NC(=O)c1ccccc1 | -5.8%
3 | CCOc1ccccc1NC(=O)C(=O)NCCc1ccccc1 | 8.7%
4 | CC(C)c1cc(Nc2nccs2)cc(C(C)C)c1O | 5.5%
5 | c1ccc2c(c1)c1ccccc1n2CCCN1CCCCC1 | -6%
6 | COc1ccc(Cn2c(SC)nc3ccccc32)cc1 | 12.8%
7 | N=C1C(c2nc3ccccc3c(=O)[nH]2)=C(O)CN1c1ccc2c(c1)OCO2 | 5.9%
8 | CC1=C(C(=O)Nc2ccccc2)C(c2ccc(-c3ccccc3)cc2)NC(=S)N1 (stereo not given) | -6.4%
9 | O=C(CSCC(=O)Nc1ccccc1)NCc1ccco1 | -20.8%
10 | COc1ccccc1C1CC(c2c(-c3ccccc3)c3cc(Cl)ccc3[nH]c2=O)=NN1C(=O)CCC(=O)O (stereo not given) | 8.3%
11 | COc1ccc(/C(O)=C2/C(=O)C(=O)N(c3ccccn3)C2c2cccnc2)cc1 (stereo not given) | -8.8%
12 | O=[N+]([O-])c1ccccc1S(=O)(=O)N1CCC(Cc2ccccc2)CC1 | 1.4%
13 | COc1ccc(OC(C)C(=O)Nc2ccc(S(N)(=O)=O)cc2)cc1 (stereo not given) | -5.3%
14 | Cc1cc(C(=O)N2CCN(c3ccc(F)cc3)CC2)ccc1[N+](=O)[O-] | 5.1%
15 | O=C1C2C3c4ccccc4C(c4ccccc43)C2C(=O)N1Cc1ccco1 (stereo not given) | -6.5%
16 | O=C1/C(=C/c2cccc(Br)c2)SC(=S)N1CC(=O)N(CCO)c1ccccc1 | 11.4%
17 | CC(=O)c1c(C)nc(C)c(C(C)=O)c1-c1ccccc1 | -2.9%
18 | O=C(Nc1nnc(COc2ccc(Cl)cc2)s1)c1ccccc1F | 10.8%
19 | O=C1c2ccc(S(=O)(=O)c3ccc4c(c3)C(=O)N(CCCO)C4=O)cc2C(=O)N1CCCO | 6.1%
20 | CS(=O)(=O)N(CC(=O)Nc1cccc(Cl)c1)c1ccc(Br)cc1 | 1.7%
21 | Nc1nc(O/N=C/c2ccc([N+](=O)[O-])cc2)nc(N2CCOCC2)n1 | -0.6%
22 | O=C(O)COc1ccc2ccc(=O)oc2c1 | 12.8%
23 | CN1C(=O)/C(=N\OC(=O)c2cccc3ccccc23)c2ccccc21 | 11%
24 | CCOc1ccc(-c2csc(/C(C#N)=C/c3ccc(C)o3)n2)cc1 | -27.9%
25 | O=C1N=c2ccccc2=C1c1s/c(=N/N=C2/C(=O)Nc3ccccc32)n(-c2ccc(O)cc2)c1O | 12.6%
26 | COc1ccccc1C(=O)Oc1ccc2c(c1)C(C)=CC(C)(C)N2 | -2.1%
27 | Cc1ccc(OC2=NS(=O)(=O)c3ccccc32)cc1 | -4.7%

Row | Compound | displacement
28 | Cc1cc2ncn(C(=O)c3cc([N+](=O)[O-])ccc3Cl)c2cc1C | 8.5%
29 | Cc1cccc(N2C(=O)/C(=C/c3cccc([N+](=O)[O-])c3)SC2=S)c1C | 10%
30 | Cc1ccc2nc(NC(=O)C3CC=CCC3C(=O)O)sc2c1 (stereo not given) | 1.8%
31 | O=C(CSc1nc2ccc(Br)cc2c(=O)n1-c1ccccc1)Nc1ccccc1[N+](=O)[O-] | 10.1%
32 | COc1ccc(/C=C/C(=O)NC(=S)Nc2ccccc2O)cc1 | 11.7%
33 | COc1ccc(C2=C/C(=C\c3ccc([N+](=O)[O-])cc3)C(=O)O2)cc1 | -4.5%
34 | COc1ccc(NC(=O)c2nn3c(c2Cl)NC(c2cccs2)CC3C(F)(F)F)cc1OC (stereo not given) | -1.3%
35 | CC(C)C(Nc1nc2ncn(Cc3ccccc3)c2c(=O)[nH]1)C(=O)O (stereo not given) | 6.2%
36 | COc1ccc(OCC(=O)Nc2cc(-c3nc4ccccc4o3)ccc2C)cc1 | 13.9%
37 | O=C(O)CCCN1C(=O)C(=O)/C(=C(/O)c2ccccc2)C1c1ccccc1[N+](=O)[O-] (stereo not given) | 15.8%
38 | COc1cc(/C=C2/SC(=S)N(c3ccccc3)C2=O)ccc1OC(=O)c1ccc(F)cc1 | 4.7%
39 | Cc1ccc2nc3c(N)c(Cl)cc4c3c(c2c1)-c1ccccc1C4=O | 18.8%
40 | COc1ccc(OC)c(N(CC(=O)NCCc2ccccc2)S(C)(=O)=O)c1 | 11.4%
41 | C/C(=N\N=C\c1ccccc1)C1C(=O)c2ccccc2C1=O | 14.8%
42 | O=C(c1ccc(F)cc1)c1ccc2c(c1)CCCO2 | -0.6%
43 | CC1C(=NO)C(C)C(c2ccc(Cl)cc2)NC1c1ccc(Cl)cc1 (stereo not given) | -19.4%
44 | CCOC(=O)C1=C(O)/C(=C/c2ccc(Cl)cc2)SC1=Nc1ccc(C)cc1 | 5.9%
45 | Clc1ccccc1-c1nnc(-c2ccccc2Br)o1 | 9.7%
46 | COc1ccccc1C(=O)Nc1ccc2oc(-c3cccc(C)c3)nc2c1 | 1.6%
47 | CCOc1ccc(C(=O)N2CCN(c3ccc([N+](=O)[O-])cc3)CC2)cc1Cl | 13.9%
48 | COc1ccc(N2C(=O)/C(=C/c3ccc(OCc4ccc(F)cc4)c(OC)c3)C(=O)NC2=S)cc1 | -3.3%
49 | O=C(O)CN1C(c2ccccc2O)Nc2ccc(Br)cc2C1c1ccccc1 (stereo not given) | 16.2%
50 | Cc1sc(NC(=O)CCCC(=O)O)nc1-c1ccccc1 | 2.5%
51 | O=C(O)CCCCCN1C(=O)C(=O)/C(=C(/O)c2ccc(F)cc2)C1c1ccc([N+](=O)[O-])cc1 (stereo not given) | 1.3%
52 | Cc1ccc(Cl)cc1NC1=CC(=O)CC(C)(C)C1 | 11.6%
53 | COc1cccc(N2C(=O)CC(Sc3nc4ccccc4s3)C2=O)c1 (stereo not given) | 8.8%
54 | COC(=O)c1c(C)oc2ccc(OCc3cccc(Cl)c3)cc12 | 3%

Row | Compound | displacement
55 | NC(=O)c1cc(S(=O)(=O)N2CCOCC2)ccc1Cl | -4.1%
56 | COc1ccc2ccccc2c1/C=N/NC(=O)c1cccc(Br)c1 | -9%
57 | CCOC(=O)C(=C/C=C/c1ccccc1)C(=O)OCC | -2.3%
58 | CCOC(=O)c1c(C)oc2ccc(OC(=O)c3ccc(C)cc3)cc12 | 8.9%
59 | CN(C)CCN1C(=O)C(=O)/C(=C(/O)c2ccccc2)C1c1ccccc1[N+](=O)[O-] (stereo not given) | 11.3%
60 | Cc1cccc(NC(=O)CC2S/C(=N\N=C\c3cccc(O)c3)NC2=O)c1C (stereo not given) | 8.3%
61 | COc1ccccc1CNCc1cc(OC)c(O)c(OC)c1 | -6.1%
62 | O=C(NC(NC(=S)Nc1ccc(Cl)c(Cl)c1)C(Cl)(Cl)Cl)c1cccc([N+](=O)[O-])c1 (stereo not given) | -7.9%
63 | COc1ccc(/C=C/C(=O)N2CCC(CN3C(=O)c4cccc5cccc(c45)C3=O)CC2)cc1OC | 21.3%
64 | CC1=C(C(=O)OCC2CCCO2)C(c2c(F)cccc2Cl)C2=C(CC(C)(C)CC2=O)N1 (stereo not given) | 10.8%
65 | CCCCNC(=O)c1ccc(C(=O)NCCCC)cc1 | -7.2%
66 | O=C(c1cccc(C(=O)N2CCN(c3cccc(Cl)c3)CC2)c1)N1CCN(c2cccc(Cl)c2)CC1 | -8.7%
67 | C=CCOc1cc(Br)c(/C=C2\C(=O)NC(=O)N(c3ccc(C)cc3)C2=O)cc1OC | -1.5%
68 | CCOc1ccc(NS(=O)(=O)c2ccc(OC)c(OC)c2)cc1 | 6.6%
69 | CC(C)(C)c1ccccc1OCCCCn1ccnc1 | 13.9%
70 | Cc1ccc(C)c(OCC(O)CN2CCN(Cc3ccccc3)CC2)c1 (stereo not given) | -4.6%
71 | COc1ccc2[nH]cc(CCC(=O)O)c2c1 | 9.5%
72 | C(=NN1CCN(Cc2ccccc2)CC1)c1ccncc1 | -6.7%
73 | CC(C)CCNC(=O)c1ccc(Cl)c(Cl)c1 | -2.8%
74 | CC1(C(=O)O)CCC(C(=O)NC2CCCCC2)C1(C)C (stereo not given) | -6.2%
75 | COc1ccc(-c2noc(-c3ccc(Br)cc3)n2)cc1 | 13%
76 | CCOc1cc(/C=c2\sc3nc4ccccc4n3c2=O)ccc1OCCOc1ccc(Br)cc1 | 19%
77 | CN(C)S(=O)(=O)c1ccc(C(=O)Nc2ccc(Cl)cc2)cc1 | 6.6%
78 | Cc1ccc(NC(=S)NC2CC(C)(C)NC(C)(C)C2)cc1 | 8.5%
79 | O=C1NC(=O)C(=Cc2cc([N+](=O)[O-])cc(Br)c2O)C(=O)N1 | 19.7%
80 | O=C(O)C(C(=O)O)C1c2ccccc2Sc2ccccc21 | 6.7%
81 | COc1cccc(/C=C2/SC(=S)N(CCC(=O)Nc3ccc(O)cc3)C2=O)c1 | 7.2%

Row | Compound | displacement
82 | Cc1cc(NC(=O)CN2C(=O)S/C(=C\c3ccccc3)C2=O)no1 | -5.7%
83 | COCCNC(=O)C(=O)NCCc1ccc(OC)cc1 | -15.8%
84 | O=C(CC(c1ccccc1)c1ccccc1)Nc1nc2ccccc2s1 | -10.3%
85 | O=C1NC(=O)/C(=C\c2ccc(O)c(Cl)c2)N1 | 13.3%
86 | COc1cccc(/C=C(\C#N)c2nc(-c3cccs3)cs2)c1 | -9.3%
87 | CS(=O)(=O)N(CC(=O)O)c1ccccc1Cl | 0.7%
88 | C#CC(C)(C)NC(=O)CN(c1ccc(C)cc1)S(=O)(=O)c1ccc(F)cc1 | 5.5%
89 | CCc1ccc(NC(=O)CSc2nnc(-c3ccco3)n2-c2ccccc2)cc1 | 14.1%
90 | O=C(COc1c(Br)cc(Br)cc1Br)N/N=C/c1ccc(O)c([N+](=O)[O-])c1 | 8.9%
91 | CCOC(=O)c1sc2nc(C)n(/N=C/c3ccc4c(c3)OCO4)c(=O)c2c1C | -1.7%
92 | CCOC(=O)C1=C(O)/C(=C/c2ccc(N(C)C)cc2)SC1=Nc1cccc2ccccc12 | 168%
93 | Cc1ccc2nc(NC(=O)CSc3nc(C)cc(=O)[nH]3)sc2c1 | 10.7%
94 | Cc1ccc(NC(=O)C(=O)/C=C(/O)c2ccc(Br)cc2)cc1 | -6.8%
95 | Cc1c(NC(=O)c2cnn3c2NC(c2cccs2)CC3C(F)(F)F)c(=O)n(-c2ccccc2)n1C (stereo not given) | -2.2%
96 | CCOC(=O)C(C(=O)OCC)C(C)C#CCN(CC)CC (stereo not given) | 0.8%
97 | Cc1ccc(/C(O)=C2\C(=O)C(=O)N(c3ccc(O)cc3)C2c2ccc([N+](=O)[O-])cc2)cc1 (stereo not given) | -9.6%
98 | NS(=O)(=O)c1cccc(C(=O)Nc2ccccc2)c1 | -11.1%
99 | CCN(CC)CCNC(=O)c1ccccc1C(=O)c1ncc[nH]1 | -3.1%
100 | COc1ccc(CCNC(=O)C(=O)Nc2cc(C)cc(C)c2)cc1OC | 12.2%
101 | COc1ccc(NC(=O)C(=O)NCC2CCCO2)cc1Cl (stereo not given) | 7.1%
102 | CCC(C)c1ccc(NC(=O)c2oc3ccccc3c2C)cc1 (stereo not given) | -10.5%
103 | CN1CCN(C(=O)C(=O)Nc2cccc3ccccc23)CC1 | -2.6%
104 | N#CC1=C(N)OC2=C(C(=O)CC(c3ccccc3)C2)C1Cc1ccccc1 (stereo not given) | 6%
105 | CC1=NN(c2cccc(C(F)(F)F)c2)C(=O)/C1=C/c1ccc(N(C)C)cc1 | 19.4%
